Experimental data published in the supplement of paper PMC8728848.
The other results are listed elsewhere or left out.

Columns and labels:
Test in all cases: glycan array binding signal (z-score within array); higher = stronger binding
Conditions in all cases: glycan notation: IUPAC condensed, linker removed
[1] = target: Neu5Ac(a2-3)Gal(b1-4)GlcNAc(b1-3)[Neu5Ac(a2-3)Gal(b1-4)GlcNAc(b1-6)]GalNAc
In short: (§1)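 Glycan array data came from 3228 arrays in the Consortium for Functional Glycomics database, and only arrays with an available protein sequence were kept. Glycan names were put into IUPAC-condensed notation, and columns mapping to the same glycan were averaged. The binding signal is a within-array Z-score, averaged across arrays of one protein sequence run at different concentrations or buffers and across linkers. A negative Z-score can be read as non-binding.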

[2] = target: Neu5Ac(a2-3)Gal(b1-4)GlcNAc(b1-6)GalNAc
In short: as §1

[3] = target: Neu5Ac(a2-3)Gal(b1-4)GlcNAc(b1-6)[Gal(b1-3)]GalNAc
In short: as §1

[4] = target: Neu5Ac(a2-3)Gal(b1-4)GlcNAc(b1-6)[Neu5Ac(a2-3)Gal(b1-3)]GalNAc
In short: as §1

[5] = target: Neu5Ac(a2-3)Gal(b1-4)GlcNAc6S
In short: as §1

[6] = target: Neu5Ac(a2-3)Gal(b1-4)[Fuc(a1-3)]GlcNAc
In short: as §1

[7] = target: Neu5Ac(a2-3)Gal(b1-4)[Fuc(a1-3)]GlcNAc(b1-2)Man
In short: as §1

[8] = target: Neu5Ac(a2-3)Gal(b1-4)[Fuc(a1-3)]GlcNAc(b1-3)Gal
In short: as §1

[9] = target: Neu5Ac(a2-3)Gal(b1-4)[Fuc(a1-3)]GlcNAc(b1-3)Gal(b1-4)GlcNAc
In short: as §1

[10] = target: Neu5Ac(a2-3)Gal(b1-4)[Fuc(a1-3)]GlcNAc(b1-3)Gal(b1-4)[Fuc(a1-3)]GlcNAc(b1-3)Gal(b1-4)[Fuc(a1-3)]GlcNAc
In short: as §1

[11] = target: Neu5Ac(a2-3)Gal(b1-4)[Fuc(a1-3)]GlcNAc(b1-3)GalNAc
In short: as §1

[12] = target: Neu5Ac(a2-3)Gal(b1-4)[Fuc(a1-3)]GlcNAc(b1-6)[Gal(b1-3)]GalNAc
In short: as §1

[13] = target: Neu5Ac(a2-3)Gal(b1-4)[Fuc(a1-3)]GlcNAc(b1-6)[Neu5Ac(a2-3)Gal(b1-3)]GalNAc
In short: as §1

[14] = target: Neu5Ac(a2-3)Gal(b1-4)[Fuc(a1-3)]GlcNAc6S
In short: as §1

[15] = target: Neu5Ac(a2-3)Gal6S(b1-4)GlcNAc
In short: as §1

[16] = target: Neu5Ac(a2-3)Gal6S(b1-4)[Fuc(a1-3)]GlcNAc
In short: as §1

Neu5Ac(a2-3)GalNAc = target: Neu5Ac(a2-3)GalNAc
In short: as §1

[17] = target: Neu5Ac(a2-3)GalNAc(b1-4)GlcNAc
In short: as §1

[18] = target: Neu5Ac(a2-3)[GalNAc(b1-4)]Gal(b1-4)Glc
In short: as §1

[19] = target: Neu5Ac(a2-3)[GalNAc(b1-4)]Gal(b1-4)GlcNAc
In short: as §1

[20] = target: Neu5Ac(a2-3)[GalNAc(b1-4)]Gal(b1-4)GlcNAc(b1-3)GalNAc
In short: as §1

[21] = target: Neu5Ac(a2-3)[Neu5Ac(a2-6)]GalNAc
In short: as §1

Neu5Ac(a2-6)Gal = target: Neu5Ac(a2-6)Gal
In short: as §1

[22] = target: Neu5Ac(a2-6)Gal(b1-3)GlcNAc(b1-3)[Gal(b1-4)GlcNAc(b1-6)]Gal(b1-4)Glc
In short: as §1

Neu5Ac(a2-6)Gal(b1-4)Glc = target: Neu5Ac(a2-6)Gal(b1-4)Glc
In short: as §1

[23] = target: Neu5Ac(a2-6)Gal(b1-4)GlcNAc
In short: as §1

[24] = target: Neu5Ac(a2-6)Gal(b1-4)GlcNAc(b1-2)Man
In short: as §1

[25] = target: Neu5Ac(a2-6)Gal(b1-4)GlcNAc(b1-2)Man(a1-3)Man(b1-4)GlcNAc(b1-4)GlcNAc
In short: as §1

[26] = target: Neu5Ac(a2-6)Gal(b1-4)GlcNAc(b1-2)Man(a1-3)[Gal(b1-4)GlcNAc(b1-2)Man(a1-6)]Man(b1-4)GlcNAc(b1-4)GlcNAc
In short: as §1

[27] = target: Neu5Ac(a2-6)Gal(b1-4)GlcNAc(b1-2)Man(a1-3)[GlcNAc(b1-2)Man(a1-6)]Man(b1-4)GlcNAc(b1-4)GlcNAc
In short: as §1

[28] = target: Neu5Ac(a2-6)Gal(b1-4)GlcNAc(b1-2)Man(a1-3)[GlcNAc(b1-4)][Neu5Ac(a2-6)Gal(b1-4)GlcNAc(b1-2)Man(a1-6)]Man(b1-4)GlcNAc(b1-4)GlcNAc
In short: as §1

B1: PX9961A-pdi-456-24-456 (Parabacteroides distasonis) (protein)
chain: KTSSTQLPTIDAISSVADLTNAVNGVYEQQATEVGSYGAEFTLLADLRSGDFQSISTVNHAGPMYRYQTGKNDEMVYSFYKLFYNSLARLNNVLAAAENLEGADVDILKGELYAMRALYHFDLARVFAKLPSTTDMNDLGIVLSTEVYPTDYIGTRATLQQTYDQILKDIETALPLLSKDKQTGHINYWGALAIRARAYLYLEKNKEALADCKEIIASSPYKLYTRDEYIGAWDKEGTNEAIFEILVTPNYNAQRNSIGYFTHASGYGECAATESFLEELAKHPGDIRTELFAKETDNGYDGTYPQKYKGRDGQIYVNNPKVVRLSEVYLIAAEAALKAGDTSAAAGYMNTLRKNRIENYTDVASITLDDILLERRLELFTEGHTAWDAWRNGKSVNNKFVGEVKPGDYRTIMAIPIGEITVSRGQLIQNPGY
glycan array binding signal (z-score) [1]: -0.095 | glycan array binding signal (z-score) [2]: 0.101 | glycan array binding signal (z-score) [3]: -0.242 | glycan array binding signal (z-score) [4]: 0.08 | glycan array binding signal (z-score) [5]: -0.019 | glycan array binding signal (z-score) [6]: -0.27 | glycan array binding signal (z-score) [7]: -0.398 | glycan array binding signal (z-score) [8]: -0.497 | glycan array binding signal (z-score) [9]: 0.573 | glycan array binding signal (z-score) [10]: -0.096 | glycan array binding signal (z-score) [11]: 1.11 | glycan array binding signal (z-score) [12]: 0.332 | glycan array binding signal (z-score) [13]: 0.273 | glycan array binding signal (z-score) [14]: -0.012 | glycan array binding signal (z-score) [15]: -0.307 | glycan array binding signal (z-score) [16]: -0.24 | glycan array binding signal (z-score) (Neu5Ac(a2-3)GalNAc): -0.483 | glycan array binding signal (z-score) [17]: -0.364 | glycan array binding signal (z-score) [18]: 0.11 | glycan array binding signal (z-score) [19]: -0.489 | glycan array binding signal (z-score) [20]: 0.641 | glycan array binding signal (z-score) [21]: -0.477 | glycan array binding signal (z-score) (Neu5Ac(a2-6)Gal): -0.046 | glycan array binding signal (z-score) [22]: -0.617 | glycan array binding signal (z-score) (Neu5Ac(a2-6)Gal(b1-4)Glc): 0.433 | glycan array binding signal (z-score) [23]: -0.245 | glycan array binding signal (z-score) [24]: -0.372 | glycan array binding signal (z-score) [25]: -0.293 | glycan array binding signal (z-score) [26]: 0.305 | glycan array binding signal (z-score) [27]: -0.47 | glycan array binding signal (z-score) [28]: -0.202
